Measured values reported in PubChem BioAssay AID588342 (National Center for Advancing Translational Sciences (NCATS), 2011).
Where “and” joins values, the source holds several entries; their conditions need not be identical. Equal entries are not always repeated. The whole screen tested about 360,000 compounds, of which about 25,000 (6.9%) were called active. Inconclusive means that the source gave no clear call. Such entries were picked first, then a sample of the others. Calls come from the whole dose curve; as a rule, active = well fitted inhibition curve with a large enough effect; inconclusive = small, poorly fitted or top-dose-only effect; inactive = flat fitted curve, though single readings scatter. A potency beside an inconclusive call is a rough fit, not a confirmed value.

Molecular target: Luciferin 4-monooxygenase (Photinus pyralis) (UniProt P08659)
Test: qHTS profiling assay for firefly luciferase inhibitor/activator using purifed enzyme and Km concentrations of substrates (counterscreen for miR-21 project); note: nearly all actives have a fitted effect of over 55% in size
Conditions: purified FLuc, luminescence inhibition; series mostly up to 57.5 µM
Outline: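 Purified P. pyralis luciferase, 10 nM final, with Km-level 10 uM D-luciferin and 10 uM ATP in 50 mM Tris acetate pH 7.5, 10 mM Mg acetate, 0.01% Tween-20, 0.05% BSA; 6-point qHTS titration about 60 µM downward; luminescence read.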
Potency is the fitted concentration of half-maximal effect; tags give direction and shape of the fitted curve.

UniProt P08659, sequence (P08659 whole entry, looked up): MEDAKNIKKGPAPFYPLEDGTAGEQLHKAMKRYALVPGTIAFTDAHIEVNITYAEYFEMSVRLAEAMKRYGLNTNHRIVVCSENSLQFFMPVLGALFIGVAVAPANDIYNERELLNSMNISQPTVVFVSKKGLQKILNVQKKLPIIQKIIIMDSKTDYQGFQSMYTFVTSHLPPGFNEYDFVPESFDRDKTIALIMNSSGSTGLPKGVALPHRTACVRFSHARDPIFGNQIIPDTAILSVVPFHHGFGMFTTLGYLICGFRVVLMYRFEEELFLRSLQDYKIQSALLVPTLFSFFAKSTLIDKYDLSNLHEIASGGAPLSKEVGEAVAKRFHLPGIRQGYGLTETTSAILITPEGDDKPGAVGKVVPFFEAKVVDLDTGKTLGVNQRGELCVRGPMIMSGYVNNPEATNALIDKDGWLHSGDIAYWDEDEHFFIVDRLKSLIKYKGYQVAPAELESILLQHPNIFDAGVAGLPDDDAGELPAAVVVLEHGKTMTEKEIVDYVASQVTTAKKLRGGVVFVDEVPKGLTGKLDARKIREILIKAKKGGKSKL

Row | Compound | Potency
1 | COc1cccc(-c2csc(N3CCN(C(=O)NC45CC6CC(CC(C6)C4)C5)CC3)n2)c1 | inconclusive: 37.9 µM [inhibitor, partial curve, poor fit]
2 | COc1cc(/C=C2/C(=O)N(c3cccc(Br)c3)N=C2C)cc(OC)c1O | active: 16.9 µM
3 | CN(C(=O)Nc1ccccc1)C1CCCCC1 | inconclusive: 37.9 µM [inhibitor, partial curve, poor fit]
4 | O=C(C#Cc1ccccc1)Nc1ccccc1F | active: 1.9 µM
5 | O=C(CSc1nnc(NC(=O)c2c(F)cccc2F)s1)NC1CCCC1 | inactive
6 | Cc1cc(=O)oc2c(C)c3occc3cc12 | inactive
7 | Cc1nc2cc(NCc3nc4ccccc4n3Cc3ccccc3)ccc2n1C | active: 0.601 µM
8 | CCN1C(=O)S/C(=C/c2cn(C)c3ccccc23)C1=O | active: 12 µM
9 | C/C(=N\NC(=O)c1n[nH]c2c1CCC2)c1cccs1 | active: 0.601 µM
10 | CCN(CC)C(=O)CSc1nnc(SCc2ccc(Cl)cc2)s1 | active: 19 µM
11 | O/N=C/c1cn(-c2ccccc2)nc1-c1ccc2c(c1)OCCO2 | inconclusive: 37.9 µM [inhibitor, partial curve, poor fit]
12 | Cc1ccccc1OCC(=O)Nc1nnc(SCc2cc(=O)n3cc(Cl)ccc3n2)s1 | inconclusive: 8.49 µM [inhibitor, partial curve]
13 | O=C(/C=C/c1ccco1)N1CCN(c2ncccn2)CC1 | inconclusive: 30.1 µM [inhibitor, single point]
14 | COc1cc(NC(=O)Nc2ccc(Cl)c(Cl)c2)c(C(=O)O)cc1OC | inconclusive: 23.9 µM [inhibitor, partial curve]
15 | CCCCCc1ccc(-c2ccc(/C=C/C(=O)O)cc2)nc1 | active: 0.379 µM
16 | O=C(OCC(=O)N1CCc2ccccc21)c1ccccn1 | inconclusive: 26.9 µM [inhibitor, single point]
17 | O=C(N/N=C\c1cc2c(cc1Cl)OCO2)c1cccs1 | inconclusive: 9.53 µM [inhibitor, partial curve]
18 | O=C(NCC1CCCN(C(=O)c2cscn2)C1)c1ccc(-c2ccccc2)cc1 (stereo not given) | active: 16.9 µM
19 | Cn1c(SCC(=O)c2ccc(F)cc2)nnc1-c1ccccc1N | inconclusive: 23.9 µM [inhibitor, single point]
20 | CCOc1ccc(OCc2ccc(C(=O)NN)o2)cc1 | inconclusive: 26.9 µM [inhibitor, partial curve, poor fit]
21 | C/C(N)=C(/C#N)C(=O)COC(=O)c1ccc(OCC2CCCO2)cc1 (stereo not given) | inconclusive: 30.1 µM [inhibitor, partial curve, poor fit]
22 | CCOC(=O)CSc1nnc(-c2ccccc2OC)o1 | inconclusive: 26.9 µM [inhibitor, partial curve]
23 | CC(=O)NCCN=Cc1sc2ccccc2c1O | inconclusive: 10.7 µM [inhibitor, partial curve]
24 | O=C(COC(=O)CCCOc1ccc(Cl)cc1Cl)NCc1ccccc1 | inconclusive: 37.9 µM [inhibitor, single point]
25 | Oc1ccc(C2=NNC(=NCc3ccc4c(c3)OCO4)SC2)c(O)c1 | inconclusive: 30.1 µM [inhibitor, partial curve]

Row | Compound | Potency
26 | Cc1oc(-c2ccccc2Cl)nc1Cn1c(SCc2cccc(F)c2)nc2cccnc21 | inconclusive: 13.5 µM [inhibitor, partial curve, poor fit]
27 | O=C1c2ccccc2C(=O)C1C1=Nc2ccccc2NC(c2ccccc2)C1 (stereo not given) | inconclusive: 37.9 µM [inhibitor, partial curve, poor fit]
28 | COc1ccc(NC(=S)N2CCN(Cc3ccccc3)CC2)cc1 | inconclusive: 30.1 µM [inhibitor, partial curve, poor fit]
29 | COc1cccc(/C=C/C(=O)c2ccc(C)c([N+](=O)[O-])c2)c1 | inconclusive: 1.9 µM [inhibitor, partial curve]
30 | O=C(Nc1ccccn1)c1cc2ccccc2cc1O | active: 2.39 µM
31 | COc1ccc(COc2ccccc2C(N)=O)cc1F | inconclusive: 26.9 µM [inhibitor, partial curve, poor fit]
32 | Cc1[nH]n(-c2ccc(Cl)cc2)c(=O)c1/C=N/n1c(C)nc2ccccc2c1=O | inconclusive: 21.3 µM [inhibitor, partial curve]
33 | Cc1cccc(NC(=O)CCc2ccccc2)c1 | inconclusive: 30.1 µM [inhibitor, partial curve, poor fit]
34 | O=C(CNc1ccc(F)cc1)c1ccccc1 | active: 15.1 µM
35 | CCn1nnnc1SCC(=O)c1ccc(C)cc1C | active: 6.75 µM
36 | CC(=O)NC1(c2ccccc2)CCN(Cc2nnnn2C(C)(C)C)CC1 | inactive
37 | CC(C)c1ccc2nc(N)sc2c1 | active: 6.75 µM
38 | Fc1cccc(-c2nnn3c2nc(Cl)c2ccccc23)c1 | active: 1.69 µM
39 | Cn1c(O)c(N=NC(=O)CNC(=O)/C=C/c2ccccc2)c2ccccc21 | inconclusive: 30.1 µM [inhibitor, partial curve, poor fit]
40 | Nc1ccc(-c2nc3ccc(N)cc3[nH]2)cc1 | active: 15.1 µM
41 | O=C(OCC#CCSc1nc2ccccc2o1)c1ccco1 | inconclusive: 37.9 µM [inhibitor, partial curve, poor fit]
42 | COC(=O)c1ccc(NC(=O)c2ccc(N(C)S(C)(=O)=O)cc2)cc1 | inactive
43 | CC1CCCN(C(=O)CSc2cnc3ccccc3n2)C1 (stereo not given) | inconclusive: 23.9 µM [inhibitor, single point]
44 | Cc1ccc(NC(=O)C2CCCCC2C(=O)O)cc1Cl (stereo not given) | inconclusive: 19 µM [inhibitor, partial curve, poor fit]
45 | O=C(CCn1c(=O)c2cccn2c2cccnc21)N1CCN(c2ccccc2F)CC1 | inactive
46 | Cc1cc(C(=O)N/N=C\c2cc(C(C)(C)C)c(O)c(C(C)(C)C)c2)n[nH]1 | inactive
47 | Cn1ccsc1=NC(=O)c1ccc(CS(C)(=O)=O)cc1 | inconclusive: 37.9 µM [inhibitor, single point]
48 | CCN(C(=O)Nc1cn(CC(C)C)c(=O)c2ccccc12)c1cc(C)ccc1C | inactive
49 | C/C(=N/N=C/c1ccccc1O)c1ccccc1O | active: 1.07 µM
50 | c1ccc(OCc2nc3ccccc3s2)cc1 | active: 3.38 µM

Row | Compound | Potency
51 | O=C(Nc1ccccc1F)c1ccc(CSc2ncccn2)cc1 | inconclusive: 7.57 µM [inhibitor, partial curve, poor fit]
52 | Cc1nc(-c2ccc(NC(=O)C3CCCCC3)cc2)cs1 | active: 2.13 µM
53 | CCOC(=O)c1c(C)[nH]c(C)c1S(=O)(=O)N1CCCC(C(=O)NCc2ccc(Cl)cc2)C1 (stereo not given) | inactive
54 | COc1cccc(C(=O)NC2=NCCS2)c1 | active: 6.01 µM
55 | CCCn1nnc(NC(=O)c2ccc(-c3cccc(Cl)c3)o2)n1 | active: 16.9 µM
56 | O=C(Nc1ccc2oc(-c3ccncc3)nc2c1)c1ccccc1Cl | inconclusive: 2.69 µM [inhibitor, full curve]
57 | Cc1ccc(-c2nc(C#N)c(NCc3ccco3)o2)cc1 | active: 4.78 µM
58 | N#Cc1ccc(C(=O)N2CCN(c3ncccn3)CC2)cc1 | inactive
59 | COc1ccc(CC(=O)OC(C)C(=O)NC2CCCCC2C)cc1 (stereo not given) | inactive
60 | C/C=C\C=C/C(=O)Nc1cccc(C2=NOC3(C2)C[C@@H](C(N)=O)N(C(=O)c2ccc(Cl)cc2)C3)c1 (stereo not given in full) | active: 15.1 µM
61 | COc1cc(C(=S)NC2CCCCC2)ccc1O | inconclusive: 23.9 µM [inhibitor, partial curve]
62 | CCOC(=O)c1ccc(NC(=O)CSc2ncccn2)cc1 | inconclusive: 26.9 µM [inhibitor, partial curve, poor fit]
63 | Cc1cc(C)nc(NC2=NCC(=O)N2c2cc(Cl)cc(Cl)c2)n1 | inactive
64 | COc1ccc(N=c2oc3cc(O)ccc3cc2C(=O)Nc2ccccn2)cc1OC | inconclusive: 10.7 µM [inhibitor, partial curve, poor fit]
65 | CCOc1ccc(NC(=O)c2sc3nc4c(c(-c5ccc(OC)cc5)c3c2N)C(=O)CC(C)(C)C4)cc1 | inactive
66 | COc1ccc(NC(=O)C2Cc3ccccc3C(=O)O2)cc1 (stereo not given) | inconclusive: 23.9 µM [inhibitor, partial curve, poor fit]
67 | COc1ccc(-c2noc(-c3cccnc3N3CCN(c4ccc(OC)cc4)CC3)n2)cc1 | inconclusive: 15.1 µM [inhibitor, partial curve]
68 | O=C(Nc1cccc(Cl)c1)c1ccc2c(c1)CCN2S(=O)(=O)c1ccccc1 | inactive
69 | O=Cc1ccc(OCc2ccccn2)cc1 | inconclusive: 21.3 µM [inhibitor, single point]
70 | CSc1ncc(-c2ccccc2)cn1 | inconclusive: 37.9 µM [inhibitor, single point]
71 | Cn1c(SCc2ccccc2C#N)nc2ccccc2c1=O | inconclusive: 26.9 µM [inhibitor, single point]
72 | O=C(O)C1Nc2c(cccc2C(F)(F)F)C2C=CCC12 (stereo not given) | inactive
73 | Cc1cccc(NC(=O)Cn2cc(C(=O)c3ccco3)c3ccccc32)c1 | inconclusive: 16.9 µM [inhibitor, partial curve] and inconclusive: 23.9 µM [inhibitor, partial curve, poor fit]
74 | Cc1ccc(C2=NC(=O)/C(=C/c3cc(O)c(O)c(Br)c3)S2)cc1 | active: 8.49 µM
75 | Cc1nc2ccccn2c1C(=O)CSc1ccccc1Cl | inconclusive: 30.1 µM [inhibitor, partial curve, poor fit]
